Measured values published in publication PMC4336329 (PLoS ONE, 2015).
About 14,000 (4.5%) of roughly 310,000 compounds showed an effect of 50% or more. The effect is printed as a negative number. This is one part of the list. Where a SMILES comes first, the peptide text is derived from it. The star is where a group is joined. Bz = O=C(c1ccccc1)*

Each compound was assayed against human ether-à-go-go-related gene (hERG) potassium channel (human, UniProt Q12809) (assay: primary screen, population patch clamp on CHO cells stably expressing hERG).
Chain of human ether-à-go-go-related gene (hERG) potassium channel (Q12809 whole entry, looked up): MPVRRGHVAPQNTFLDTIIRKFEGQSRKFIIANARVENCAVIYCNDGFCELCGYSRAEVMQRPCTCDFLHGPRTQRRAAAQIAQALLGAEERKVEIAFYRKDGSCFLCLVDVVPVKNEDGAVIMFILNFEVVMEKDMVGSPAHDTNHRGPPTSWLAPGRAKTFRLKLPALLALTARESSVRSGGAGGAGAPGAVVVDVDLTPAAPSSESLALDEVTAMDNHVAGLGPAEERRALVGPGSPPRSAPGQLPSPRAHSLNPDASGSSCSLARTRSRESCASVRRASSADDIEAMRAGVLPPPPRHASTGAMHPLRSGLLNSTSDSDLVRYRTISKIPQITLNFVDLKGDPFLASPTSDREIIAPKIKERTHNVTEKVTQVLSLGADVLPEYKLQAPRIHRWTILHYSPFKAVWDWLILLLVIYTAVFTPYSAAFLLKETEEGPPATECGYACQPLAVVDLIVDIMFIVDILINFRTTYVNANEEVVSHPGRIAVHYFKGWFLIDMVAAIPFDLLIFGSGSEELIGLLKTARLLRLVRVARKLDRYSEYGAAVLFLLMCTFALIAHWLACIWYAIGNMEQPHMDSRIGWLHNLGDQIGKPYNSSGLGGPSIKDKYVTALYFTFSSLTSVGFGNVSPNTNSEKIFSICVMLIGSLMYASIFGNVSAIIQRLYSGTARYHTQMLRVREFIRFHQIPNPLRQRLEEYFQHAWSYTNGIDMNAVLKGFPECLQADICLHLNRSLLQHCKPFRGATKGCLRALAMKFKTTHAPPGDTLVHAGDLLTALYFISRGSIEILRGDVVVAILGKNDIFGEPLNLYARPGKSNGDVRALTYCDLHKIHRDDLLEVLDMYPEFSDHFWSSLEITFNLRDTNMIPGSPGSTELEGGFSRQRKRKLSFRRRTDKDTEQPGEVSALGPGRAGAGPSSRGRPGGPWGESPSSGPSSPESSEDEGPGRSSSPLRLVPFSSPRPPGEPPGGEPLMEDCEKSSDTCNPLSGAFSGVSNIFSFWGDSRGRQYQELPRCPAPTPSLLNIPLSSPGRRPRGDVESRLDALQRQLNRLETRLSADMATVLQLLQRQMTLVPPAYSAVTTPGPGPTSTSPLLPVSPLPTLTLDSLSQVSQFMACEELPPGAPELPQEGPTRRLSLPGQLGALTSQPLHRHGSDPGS
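Also: peak tail current of the secondary pulse compared with the same well before compound.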

Compound | hERG current change (%, negative = inhibition) at 10uM
O=C(NCc1ccccn1)C(=O)NCC(c1ccco1)N1CCOCC1 (stereo not shown) | 9.28%
CN(C)S(=O)(=O)c1ccc2c(c1)nc(CCC(=O)Nc1ccc3c(c1)OCO3)n2C | -0.928%
Cc1c(NC(=O)C23CC4CC(CC(Br)(C4)C2)C3)c(=O)n(-c2ccccc2)n1C | 15.4%
COCCN(C(=O)CSCc1ccccc1)c1c(N)n(Cc2ccccc2)c(=O)[nH]c1=O | -18.9%
O=S(=O)(c1ccc(NCCOCCO)nc1)N1CCCCC1 | 10%
COc1ccccc1CNC(=O)C1CCN(S(=O)(=O)c2ccc(-n3cnnn3)cc2)CC1 | -66.9%
Cc1ccc(C(=O)Nc2ccc(C)c(S(=O)(=O)Nc3ccccc3Cl)c2)s1 | -6.43%
COc1ccc(C(=O)Oc2ccc(-c3nnco3)cc2)cc1S(=O)(=O)N1CCOCC1 | -5.2%
C=C(C)CN1CCN(c2ccc(N3C(=O)CCCC3=O)cc2[N+](=O)[O-])CC1 | 16.9%
CCOC(=O)COc1nc(N(C)C)nc(N(C)C)n1 | 0.423%
COCCNC(C(=O)Nc1ccc(C)cc1[N+](=O)[O-])c1ccccc1 (stereo not shown) | -6.29%
Cc1cc(NC(=O)CN2C(=O)NC(C)(c3ccccc3)C2=O)no1 (stereo not shown) | -55.5%
O=C(O)c1ccc(NC(=O)c2ccccc2Br)c(NC(=O)c2ccccc2Br)c1 | 9.34%
COCCn1c(SCC(=O)N2CCCc3ccccc32)nnc1-c1ccco1 | 4.37%
CCOc1cc(N2CCOCC2)c(OCC)cc1NC(=O)CSc1ncccn1 | -7.47%
O=[N+]([O-])c1cc(-c2nnc(C34CC5CC(CC(C5)C3)C4)o2)cc([N+](=O)[O-])c1 | -3.46%
CCOC(=O)CNC(=O)CNC(=O)c1nn(-c2ccc(OC)c(OC)c2)c(=O)c2ccccc12 | 28.7%
Cc1ccc(-c2csc(N(C)C(=O)c3c(C)nn(-c4ccccc4)c3Cl)n2)cc1 | 14.9%
CCOC(=O)c1ccc(NC(=O)CSc2nc(SC)ns2)cc1 | 7.04%
O=C(COC(=O)c1ccccc1Oc1ccccc1)NC1CC1 | 3.65%
C/C(CC(=O)NCc1ccc(Cl)cc1)=N\NC(=O)Cc1ccccc1 | -26.5%
O=C(CSc1nnc(NC(=O)C2CCC2)s1)Nc1ccccc1F | 10.9%
O=C(NCCc1ccccc1)/C(=C/c1ccco1)c1ccccc1 | -13.8%
COc1ccc(CN2CC(=O)N(c3ccc(C)cc3)C2=S)cc1OC | 2.13%
COc1ccccc1C1CCN(C(=O)C2CCCCC2)CC1 | 0.179%
CC(=Nc1ccc(C)cc1C)c1sc2ccccc2c1O | 3.21%
COc1ccc2nc(C)c3cc(C)oc3c2c1 | -15.5%
CC1CCCN(CCCOc2ccc([N+](=O)[O-])cc2)C1.O=C(O)C(=O)O (stereo not shown) | -74.7%

Compound | hERG current change (%, negative = inhibition) at 10uM
COc1cc(-c2nnc(NC(=O)c3ccc(S(=O)(=O)N4CCOCC4)cc3)o2)cc(OC)c1OC | 15.5%
Cc1nonc1NC(=O)CSc1nc(C2CCCCC2)nc2ccccc12 | -2.81%
O=C(NC(Cc1ccccc1)C(=O)NC(Cc1ccccc1)C(=O)O)c1ccccc1 (stereo not drawn) (Bz-Phe-Phe-OH; configuration not given here) | 36.1%
CCOC(=O)CSc1nc2cc(C(F)(F)F)cnc2n1C | -14.6%
CCn1c(SCc2cccc(F)c2)nnc1-c1ccncc1 | -8.82%
Cc1ccc(Cc2c(C)[nH]c(=S)[nH]c2=O)cc1 | 15.7%
CCn1c(CC(C)C)n[nH]c1=S | 0.712%
COc1ccc(NC(=O)c2nnn(Cc3cccc(F)c3)c2N)c(OC)c1 | 1.29%
CCc1ccc(-n2c(SCC(=O)c3ccc4c(c3)NC(=O)CO4)nc3ccccc3c2=O)cc1 | 14.8%
CCOc1ccc(C(N)=O)cc1OC | 6.13%
CCOc1ccc(C(=O)CCC(=O)NCC(=O)OCc2ccccc2)cc1OCC | 19.1%
C#CCNC(=O)C1=C[C@@H](c2ccc(C(F)(F)F)cc2)C[C@@H](OCc2ccc(CO)cc2)O1 | -37%
COc1cccc(CN(C)C(=O)C2CC(=O)N(c3ccc4c(c3)OCCO4)C2)c1 (stereo not shown) | 12.1%
CN(CC(=O)Nc1ccc(N2CCOCC2)cc1)Cc1c(O)ccc2ccccc12 | 1.97%
COc1cccc(Nc2nc(NCCO)c3ccccc3n2)c1.Cl | -40.2%
O=S(=O)(NC1CCCCC1N1CCC(O)CC1)c1ccccc1 (stereo not shown) | 26.2%
Cc1cccc(N2C(=O)CC(Sc3nccc(C)n3)C2=O)c1 (stereo not shown) | 4.01%
Cc1ccccc1CCN(C(=O)CN1C(=O)c2ccccc2S1(=O)=O)C(C(=O)NCC1CCCO1)c1ccncc1 (stereo not shown) | -18.8%
O=C(NC1CCCC1)C(c1ccc(F)cc1)N(Cc1ccccc1Cl)C(=O)CCl (stereo not shown) | 0.933%
Nc1nc(CSc2nc3ccccc3[nH]2)nc(N2CCOCC2)n1 | 3.53%
CCn1cc(CCC(=O)NC2CCCC2)c2ccccc21 | 1.13%
O=C(O)/C(=C\c1ccco1)NC(=O)c1ccc(Br)o1 | 11.3%
COc1ccc(OC)c(C(=O)COC(=O)CN2C(=O)NC3(CCCCC3C)C2=O)c1 (stereo not shown) | -28.7%
Cn1nnc(NC(=S)NC(=O)c2cccc3c(Br)cccc23)n1 | 17.4%
O=C(Nc1ccccc1C(=O)NCCCN1CCOCC1)c1ccc(F)cc1 | -15.6%
COc1ccccc1CN1CC(C(=O)NCc2ccc(C)c(F)c2)CCC1=O (stereo not shown) | 0.721%
Cc1cc(Cl)c(OCCCn2cncn2)c(Br)c1 | -14.1%
